Read-outs that look alike come from different tables or passages of the source.
Legend:
human DNA polymerase α [1] = target: T1, human DNA polymerase α (Homo sapiens, UniProt P09884); details: from Chang, et al. / Yao, read-out: IC50 Human DNA pol α; cited from earlier work
T1 sequence (P09884 1-1462): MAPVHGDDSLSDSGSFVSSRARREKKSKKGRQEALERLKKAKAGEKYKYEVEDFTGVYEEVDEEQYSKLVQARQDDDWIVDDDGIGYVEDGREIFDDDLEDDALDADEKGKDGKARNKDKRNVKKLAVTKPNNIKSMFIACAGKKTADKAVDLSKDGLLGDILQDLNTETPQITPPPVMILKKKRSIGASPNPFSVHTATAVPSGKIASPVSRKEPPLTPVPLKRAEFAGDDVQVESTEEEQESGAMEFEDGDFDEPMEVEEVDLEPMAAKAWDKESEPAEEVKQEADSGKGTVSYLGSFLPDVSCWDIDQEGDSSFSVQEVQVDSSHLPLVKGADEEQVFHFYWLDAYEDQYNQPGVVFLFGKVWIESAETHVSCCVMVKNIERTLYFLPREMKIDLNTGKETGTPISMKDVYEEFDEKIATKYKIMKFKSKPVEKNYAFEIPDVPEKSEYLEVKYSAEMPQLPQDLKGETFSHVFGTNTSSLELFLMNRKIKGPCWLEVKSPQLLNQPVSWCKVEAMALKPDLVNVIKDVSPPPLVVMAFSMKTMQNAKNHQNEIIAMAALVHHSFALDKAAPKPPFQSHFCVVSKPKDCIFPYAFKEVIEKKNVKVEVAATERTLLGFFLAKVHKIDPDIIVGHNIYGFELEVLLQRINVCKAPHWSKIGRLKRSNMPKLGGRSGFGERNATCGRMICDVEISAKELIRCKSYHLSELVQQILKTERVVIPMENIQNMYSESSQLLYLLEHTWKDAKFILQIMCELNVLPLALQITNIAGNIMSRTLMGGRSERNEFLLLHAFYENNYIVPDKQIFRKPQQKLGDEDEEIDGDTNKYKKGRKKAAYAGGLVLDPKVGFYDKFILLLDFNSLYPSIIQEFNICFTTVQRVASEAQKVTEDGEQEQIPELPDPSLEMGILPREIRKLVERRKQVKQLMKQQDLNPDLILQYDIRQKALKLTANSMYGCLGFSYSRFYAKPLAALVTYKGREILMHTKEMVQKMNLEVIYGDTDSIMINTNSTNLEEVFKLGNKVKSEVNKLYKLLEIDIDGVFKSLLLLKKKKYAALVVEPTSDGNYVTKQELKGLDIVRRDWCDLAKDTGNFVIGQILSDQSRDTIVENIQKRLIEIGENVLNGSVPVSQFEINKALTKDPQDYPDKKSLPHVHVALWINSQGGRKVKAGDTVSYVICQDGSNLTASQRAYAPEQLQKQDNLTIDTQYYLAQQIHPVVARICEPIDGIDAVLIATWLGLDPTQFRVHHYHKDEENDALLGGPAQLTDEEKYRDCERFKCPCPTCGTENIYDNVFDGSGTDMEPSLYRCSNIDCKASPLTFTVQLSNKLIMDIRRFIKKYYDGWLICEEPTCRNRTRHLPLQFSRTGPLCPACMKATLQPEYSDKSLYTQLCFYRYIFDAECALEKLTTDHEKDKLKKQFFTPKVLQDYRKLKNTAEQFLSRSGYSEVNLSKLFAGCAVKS

human DNA polymerase α [2] = target: T1, human DNA polymerase α; type: biochemical; details: highest concentration tested 100 μM; read-out: IC50 Human DNA pol α
Text: Nucleosides and nucleoside analogs are usually metabolized within cells to their TP derivatives. Cellular DNA polymerases are routinely responsible for normal nuclear and mitochondrial DNA synthesis and repair. Because the TP metabolites are potential substrates for DNA polymerases, studies were undertaken to determine if L-dC-TP inhibited human DNA polymerases.

Cc1cn([C@H]2O[C@@H](COP(=O)(O)OP(=O)(O)OP(=O)(O)O)[C@H](O)[C@H]2F)c(=O)[nH]c1=O [L-FMAU-TP]
IC50 (human DNA polymerase α [1]): > 50 µM

Nc1ccn([C@@H]2C[C@@H](O)[C@H](COP(=O)(O)OP(=O)(O)OP(=O)(O)O)O2)c(=O)n1 [L-dC-TP]
IC50 (human DNA polymerase α [2]): > 100 µM

O=c1ccn([C@@H]2C[C@@H](O)[C@H](COP(=O)(O)OP(=O)(O)OP(=O)(O)O)O2)c(=O)[nH]1 [L-dU-TP, β-L-2′-deoxyuridine 5′-triphosphate]
IC50 (human DNA polymerase α [2]): > 100 µM

Nc1ccn([C@@H]2CS[C@H](COP(=O)(O)OP(=O)(O)OP(=O)(O)O)O2)c(=O)n1 [Lamivudine-TP]
IC50 (human DNA polymerase α [1]): > 5 µM
